# Reference: the supplement of paper PMC4166925
# ± gives the standard deviation of the averaged measurements. Whole data set: some 33,000 sequences, median “E-score (dimensionless, -0.5 to 0.5)” near -0.049, cut for the highest 2% near 0.37. Some of the results follow.
# System: T1, PmTbr T-box DNA-binding domain (GST fusion)
# T1 sequence: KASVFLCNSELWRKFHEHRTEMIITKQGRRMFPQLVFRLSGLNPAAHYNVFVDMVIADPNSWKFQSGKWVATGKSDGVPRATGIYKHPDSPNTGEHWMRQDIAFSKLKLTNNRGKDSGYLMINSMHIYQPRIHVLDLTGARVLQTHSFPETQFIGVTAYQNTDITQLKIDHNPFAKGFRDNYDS
# Assay: PBM E-score of 8-mer (E-score (dimensionless, -0.5 to 0.5)); Tbr is Tbrain of the sea star Patiria miniata (Pm) or the sea urchin Strongylocentrotus purpuratus (Sp); higher = stronger binding preference; most listed sequences are background and not binding sites
# Settings: the construct has about 5 more residues each side
# Method in brief: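 Universal Agilent oligonucleotide arrays, made double-stranded by primer extension, were incubated with 200 nM GST-fused Tbr T-box DNA-binding domain in PBS (pH 7.5). The protein was expressed in BL21 E. coli at 20 °C and purified by glutathione affinity chromatography. After scanning and quantification, the Universal PBM Analysis Suite assigned an enrichment E-score to each ungapped 8-mer, averaged over duplicate arrays.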
row,Sequence,PBM E-score of 8-mer
1,CTTCGGCA,0.054 ± 0.018
2,GCCTGCTA,0.11 ± 0.017
3,CCACCCAC,0.153 ± 0.052
4,AGTGAGGC,0.0767 ± 0.038
5,AGCACGAA,0.0403 ± 0.025
6,TCAAACGA,-0.132 ± 0.04
7,GACATATA,-0.173 ± 0.057
8,TACTGCGA,0.149 ± 0.029
9,CACGGACA,0.222 ± 0.017
10,CATTTTAC,0.0972 ± 0.072
11,ATTCATTC,-0.223 ± 0.086
12,AGGCCCCT,-0.279 ± 0.0033
13,AGCCATAA,-0.149 ± 0.01
14,AGACATCC,-0.224 ± 0.039
15,GAGACTTA,-0.063 ± 0.0065
16,CTCCATGA,-0.245 ± 0.061
17,AAGCGTAA,-0.138 ± 0.09
18,ACGTGCAG,0.0746 ± 0.0073
19,GTTATGAA,-0.028 ± 0.039
20,CAATTGAA,-0.158 ± 0.077
21,CCGTTGCA,0.0392 ± 0.088
22,ACCTACCG,-0.0203 ± 0.078
23,CGCTGAAG,-0.0365 ± 0.0018
24,GAGTCATC,-0.175 ± 0.003

row,Sequence,PBM E-score of 8-mer
1,AACTCCTT,-0.105 ± 0.0098
2,CTGGATGC,0.0124 ± 0.0062
3,ATCAATTG,0.049 ± 0.095
4,GCCACCCA,0.0536 ± 0.024
5,ACCTCGCG,0.34924 ± 0.00023
6,CTCTTTGA,-0.03 ± 0.094
7,ATGAAGGA,-0.276 ± 0.028
8,CCTGATGA,0.0372 ± 0.038
9,AAGAATCG,-0.0615 ± 0.066
10,GACAACGC,0.2165 ± 0.00078
11,AGCGTCAG,-0.0271 ± 0.047
12,ACTTCGTA,0.0369 ± 0.042
13,ACTTACCC,0.0624 ± 0.018
14,TAAGCCGA,-0.153 ± 0.006
15,AAGTGAGC,0.1 ± 0.014
16,CCCACACA,0.17 ± 0.0076
17,ACGACCTG,0.00253 ± 0.052
18,GGGGATGA,-0.132 ± 0.022
19,GTAAGCTA,-0.266 ± 0.012
20,CAAACAAC,0.0609 ± 0.00083
21,ATAAACCC,-0.175 ± 0.015
22,ACTTCTGA,0.156 ± 0.038
23,ACTACCTC,-0.248 ± 0.022
24,CACAAAAA,0.196 ± 0.061

row,Sequence,PBM E-score of 8-mer
1,ATATGAAG,0.0923 ± 0.063
2,CACTAGCC,0.0461 ± 0.04
3,ATGTGCAA,0.226 ± 0.022
4,CATACCAG,0.06 ± 0.022
5,GCTGGTTA,-0.0863 ± 0.064
6,AAAGTTAG,0.165 ± 0.062
7,ATGTCGCC,0.0862 ± 0.038
8,AACAGCTC,0.224 ± 0.0067
9,GCGCCCCA,0.0233 ± 0.013
10,TAAGTAAA,0.0555 ± 0.012
11,AGGAAATG,-0.0436 ± 0.025
12,ACGATTAT,-0.0344 ± 0.11
13,AGCAGGTG,0.414 ± 0.026
14,AACCGCCT,-0.193 ± 0.051
15,CAGTTGCG,0.255 ± 0.011
16,AAGCTAAA,-0.155 ± 0.042
17,ACAGTTTG,0.106 ± 0.011
18,ATTTTGAG,-0.191 ± 0.09
19,CGGTCACC,0.0508 ± 0.043
20,AGCGGGCA,0.0308 ± 0.016
21,CAAGCCAG,-0.2392 ± 0.0017
22,AGCCTATC,-0.2 ± 0.016
23,CAAATGGA,-0.0686 ± 0.065
24,ACTGTACG,-0.0583 ± 0.012

row,Sequence,PBM E-score of 8-mer
1,ATAACGTG,0.2268 ± 0.0011
2,ACACTGGT,0.0876 ± 0.027
3,AATCCACC,-0.216 ± 0.013
4,CCGTACAA,-0.184 ± 0.043
5,CGAGCCAG,-0.153 ± 0.009
6,GCTCCATA,-0.361 ± 0.024
7,CGTGCTCC,-0.172 ± 0.017
8,ACCCCGGG,0.0177 ± 0.028
9,ATTATCGG,0.0166 ± 0.099
10,GGGAGTCA,-0.0598 ± 0.063
11,GACAGAAC,-0.14 ± 0.039
12,ACCCCATG,-0.00548 ± 0.12
13,CTGCAAGA,-0.256 ± 0.017
14,ATAACCAT,-0.0901 ± 0.022
15,CAAAGAAA,-0.244 ± 0.039
16,TTCCGGAA,-0.287 ± 0.0082
17,GACTCTCC,-0.183 ± 0.018
18,AAATCCGT,-0.0563 ± 0.063
19,GACTGACA,0.142 ± 0.069
20,AGAGTCCA,-0.0367 ± 0.066
21,ATTCGGTG,0.139 ± 0.074
22,AAGCTACT,-0.00821 ± 0.04
